The full ranking holds about 33,000 sequences; the median of “E-score (-0.5 to 0.5)” is about -0.017, and the highest 2% start at about 0.3. The list shows a part of the results.
Target: T1, Sut1 (UniProt P53032)
T1 sequence: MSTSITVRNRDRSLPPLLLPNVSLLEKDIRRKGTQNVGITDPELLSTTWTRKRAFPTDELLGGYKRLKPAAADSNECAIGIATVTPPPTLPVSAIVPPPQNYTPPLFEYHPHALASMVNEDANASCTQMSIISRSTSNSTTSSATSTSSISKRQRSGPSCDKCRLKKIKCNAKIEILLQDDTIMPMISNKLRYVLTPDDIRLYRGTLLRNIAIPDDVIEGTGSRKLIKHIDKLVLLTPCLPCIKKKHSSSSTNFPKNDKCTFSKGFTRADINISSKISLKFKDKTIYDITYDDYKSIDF
Experiment: PBM E-score (8-mer binding enrichment) (E-score (-0.5 to 0.5)); higher = stronger / more preferred TF binding; most listed sequences are background and not binding sites
Details: protein concentration: 200 nM; construct: GST-full length
Procedure, shortened: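 The E-score, a modified Wilcoxon-Mann-Whitney statistic, was computed by the Universal PBM Analysis Suite for every ungapped eight-base word pooled with its reverse complement. Scans behind it were normalised with masliner after bound GST-tagged yeast transcription factors were detected with fluorescent anti-GST. The proteins, at about 100-200 nM, had been applied to universal all-10-mer Agilent arrays made double-stranded by primer extension.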

Sequence	PBM E-score
CAGCGCTA	-0.163
CCTGACCC	-0.195
CAGCCGGC	-0.0969
CAGGGTAC	-0.303
AACCCGAT	-0.0428
GCGCGCGC	0.203
GGCCCTAC	-0.17
GACCCCTC	-0.262
GACCACAC	-0.00407
CCTGAAAG	-0.205
GATTGGTA	0.171
AGGCAACG	-0.0843
CCTTCTCA	-0.0302
CTTTGTGA	-0.0025
AAAGAGTA	0.0101
ACCCGGCC	-0.267
CGGAAGTC	0.179
AGCTTTGA	0.0933
AATATATT	0.31
CTTGAACC	0.0226
GACAGCCA	-0.131
TCACAGAA	0.0733
ACATCACC	0.0273
CCATAAAA	0.128
ACAATATG	0.115

Sequence	PBM E-score
CACTTACG	0.0375
AACGCCTG	-0.16
CGCTGAAC	-0.0166
GCCAGTGA	-0.153
ATCCCTTC	0.0587
ACTCTCCA	0.0307
AACGACGC	0.139
CAACCCGC	-0.0679
CGCCCAAA	-0.0114
AGTCGCAC	-0.167
AATTCTTG	0.155
CGATTCCC	-0.0189
AGTGAGTG	0.0493
CTATACTC	-0.0209
AGCCGCCC	-0.165
CTCGCGGC	-0.147
CCGAACAG	0.143
CGTGTAGC	-0.26
GATGAATC	0.101
ACTCTAAC	0.127
ACAAAATA	0.254
ATTGTAGC	-0.0178
CATATCAC	0.0564
ATCTATCC	0.244
AGGTATCA	0.0326

Sequence	PBM E-score
CCTAGTTA	0.148
CATCGTAG	-0.282
CCCACTCA	0.0163
GGACCAAA	-0.0301
GGCCATAC	-0.0824
ACGAGTCC	0.0395
ACGCTTAC	-0.0439
AGGAACAA	-0.0298
ACTAAGAA	0.157
AGTTCGGC	0.126
TATGAGGA	-0.0297
TACATTGA	0.0782
ACGTTACG	-0.0887
TATCCCAA	-0.0712
AGACTTAG	-0.225
GTAACCCA	0.163
ACGACACG	0.0774
ACCAACGA	-0.0955
GTCACCAC	-0.12
GCACAAGA	0.00621
TCCCGAGA	-0.0188
CAAGGTCC	0.13
AGCTTTCG	-0.185
CAAGCCTA	-0.0329
CTTTGGAC	0.0214

Sequence	PBM E-score
ATTCTCGG	0.28
CACTAGCG	-0.128
CCAGGGTA	-0.203
GCGGGCTA	-0.126
ACGAGCAT	-0.082
CCGTACTA	0.297
GATTACTA	0.166
AAACCCCG	0.441
TCGACGCA	-0.121
CTGTCATC	-0.155
CATTAAGC	-0.0114
GTATATAC	0.316
ACCTTTAA	0.13
AAATGAGG	-0.0395
GCCTCGCC	-0.339
ATGTCGAC	0.0925
CTCGTCCA	-0.0495
AAGATCGA	0.0882
GTCATGAA	-0.0184
AATGTGAT	0.0868
ACGGTCGC	-0.254
AGCGCACC	-0.0534
GATTCACC	0.0355
GTCGACCA	-0.216
AGGCTACT	-0.136

Sequence	PBM E-score
AGGGTGTA	-0.119
CTGGCCCC	-0.205
CTACTGGC	-0.24
GGTCCACA	-0.325
AACACTCG	0.0637
AAAGGACC	0.00629
CTCTGAGC	-0.225
ATGACCAA	0.0389
CTCCAGCA	-0.173
AATAGCGC	0.0508
GGATAGCC	0.0369
GCCCCTAC	-0.327
AGTTAAAA	0.285
ACAAGGTA	0.0911
CCGAACAC	0.195
AAGAGAAT	0.0867
ATTGCTAC	0.111
TCGTAAGA	0.0115
GTGTAACA	-0.025
CGGGAACC	-0.174
AAGTGTTC	0.0702
AAGTATGA	-0.00985
GTAGTCAA	0.0841
GACTTGGA	-0.0651
AATTCCAT	0.0698

Sequence	PBM E-score
CGGTCTGC	-0.19
CGACGAAA	0.0757
GATAACCC	-0.0815
ATTGTCCC	-0.108
ACCCGGTG	-0.224
CAAATGGC	0.0392
ACGATGAA	0.0815
ACGGTGGC	-0.198
AAAGAAGA	0.0444
CGTTGGAC	-0.218
AACGCAGG	-0.129
CCGGTATC	0.00301
GTACTTCA	0.234
CTATCGAA	0.115
AACCACCG	0.0748
ACGCGGAA	0.112
ACCGTAGA	0.0336
CGTACACG	-0.134
AAGGGCGG	-0.0711
GACATTTA	0.0718
CATCATCA	0.0301
AGCACTCA	-0.0584
ACGACACC	-0.214
CATCTCAG	-0.0547
CATGCAAA	0.0375

Sequence	PBM E-score
CAGCTGCG	-0.278
CCAACCTA	0.0103
CACCATAG	-0.221
CATAACAC	0.0299
GGCCAAAA	-0.0526
AGATGCGG	-0.0079
AAATTCAA	0.261
ACACTACT	0.0448
CGAATCCC	0.073
CATCCTAA	0.0282
ACACAAGC	-0.056
TGACTTAA	0.153
ACTGCCAG	-0.114
GGTCTTAA	-0.0856
AACACGTG	-0.0381
ATACCCAT	-0.0242
CTTTGTAC	-0.0681
TCTTGAAA	0.267
CTAGGCCA	-0.145
GAGAATAC	0.0703
CATGACAA	-0.00952
CCTCTAGC	-0.219
ACGCCATA	-0.131
CAGCCAGG	-0.296
AAGCCGCG	-0.0669

Sequence	PBM E-score
CCCCGTCC	-0.194
CCGCATGA	-0.0793
AATGGACC	0.12
ATAGTATC	0.213
ACCTGATG	-0.238
AGCAAGTA	-0.079
ACATTTGC	0.0426
ACAGAATG	-0.116
AAAACGCA	-0.0411
GGCCGCTA	-0.153
ACAACCCG	0.0142
AATTCGGG	0.17
AAAGCCAG	-0.0144
AGGGTTAA	0.00212
CTGCTATC	0.134
GGTCTTGA	-0.0986
CTGAGGAA	-0.147
CTTTCGGA	0.395
GAGCATTA	0.00341
AGGAACGC	-0.23
ACTACGGG	-0.0434
GCCTGAGC	-0.353
ACGTGCAC	-0.14
ATGGGGGG	-0.324
GTGGCAAA	-0.17

Sequence	PBM E-score
CTGAGCCC	-0.252
ATCTCCTA	-0.0274
CTCTCTAA	-0.108
CAATAGAA	0.0731
AGGTCTCC	-0.115
ACTACACC	0.0323
ACCCGATC	-0.179
CACCTAGG	-0.145
AAGTGCAG	-0.298
ACAACTGT	-0.138
CTAGCATC	-0.0352
AAGAGCTC	-0.108
CGGGACGC	-0.229
AGTCAATC	0.0394
AAGAGGGT	-0.161
AATTTGGG	-0.0119
ACTGCGAG	-0.185
AGTGCCTA	-0.191
AACTCGAC	-0.0444
AGAGCGCA	-0.306
ATCCCAAT	0.0805
ATGTATAG	0.0664
CGCGTCCC	-0.0434
ATTGCCTA	-0.25
AGTTCGTC	-0.00915

Sequence	PBM E-score
CTGCGTCA	-0.0676
CACCGGCA	0.00573
GTTAAGGA	0.0323
AGTAATTG	0.0745
ACTGGGCT	-0.0255
CTTGCCTA	-0.0357
AGACTGAC	0.0324
ACGAGATC	0.0427
GCACGCGC	-0.057
AGGCTTCG	-0.0165
GATCTTAA	0.149
ACGCTCCG	0.0842
GACACGTC	-0.169
CTTCAAGA	0.042
GATCTTAC	-0.106
AGCGAGCG	-0.031
GATATTAA	0.285
GCTGAAGC	-0.0969
AAGCTCAA	-0.0002
CTCTCTTC	-0.0837
AACTTTAG	0.189
CGACATGC	-0.0641
AGTTACGA	0.165
AGGCGGAC	0.142
AATACACG	0.0728

Sequence	PBM E-score
CGAGGCGA	-0.082
AGCCCTCC	-0.265
GCACACTA	-0.201
TGCTAGCA	0.0232
CGCTTCTA	0.181
CCCGAAGG	-0.0908
CCGCCTTC	-0.0906
GCGTTTAA	0.034
AAGTGCGA	0.00733
CCACTGTC	-0.241
AGTTAAAG	0.0654
ACCATCTG	-0.215
CCTTCCTA	-0.218
CGCGCGAA	-0.0343
CCAGGAAA	0.0848
AGAACGCG	-0.0274
AAGCGAAA	0.137
ACATTCCG	0.203
GACGGCGA	-0.211
AACGAAGT	0.00656
CAGGGCTA	-0.281
CTCAGCAA	-0.0278
AACACATG	-0.0982
AATTAAAG	0.198
AGTCTATA	-0.057

Sequence	PBM E-score
ACCGTGGC	-0.294
AATCAAAG	0.0752
ATGATGAC	-0.00406
TCATTACA	0.194
CTAAACTC	0.225
AGATTACT	0.17
ATTACATA	0.154
GAACAACA	0.0257
AGAAGACG	0.165
CGGGCAGA	-0.0138
CACTCAAA	0.0583
CTTTCTAC	0.0717
CAGTGCGG	-0.0241
TGAATGAA	0.22
CGACTTTA	0.166
ATATCAGC	-0.0972
GGGCAATA	-0.115
AACGTGTA	-0.0189
AAAGACGG	0.156
GCGGTGTA	-0.0318
CTAGAAAG	0.113
AGATACCT	-0.131
CAGGTTCC	-0.197
AGCTCAGA	-0.183
ACTTGGCC	-0.0598

Sequence	PBM E-score
GGTCTTAC	-0.0805
ACGCACCT	-0.126
CACCCCGC	0.114
ATACAGCC	-0.131
AATATGGA	0.0994
ATTGAGGC	-0.013
CATGGTTC	0.0395
ATGGACCG	-0.0839
CCATACCA	-0.0352
CTTGTGAC	-0.172
CATCAATC	0.154
AGTGTGTG	0.0153
GAGGAACC	-0.152
AACTGGAA	0.00516
CGCCTTCA	-0.0861
CCGCTTGC	0.0599
GGAAGGTA	0.0137
GAGTAACC	0.224
GAGGGGCA	-0.423
CTGTATGC	0.127
GGGGGGAA	-0.318
GAAAGATC	-0.057
CAATGAGG	-0.175
AGTGCTAT	-0.0139
CAATAGGC	0.13

Sequence	PBM E-score
AAGGCGCA	-0.0425
CCAATGCA	-0.0621
AGAGAAAC	0.0576
AGAACCCC	0.0064
CTGGGGCA	-0.334
TAACGTCA	0.0274
GCGAGAAA	0.0168
AACCGGCC	-0.0986
GTGACTGA	-0.0404
GTAAACGA	-0.0179
CCTGTTCG	-0.0708
AACTTCAT	0.0505
GGGATTCA	-0.105
TGTATGAA	0.193
CTCGTATA	-0.0483
AAAAGTAA	0.286
ACTGCCTA	-0.16
CCACCTCG	-0.208
ACATCCAG	-0.151

Source: the supplement of paper PMC3334620
